# Measurements taken from PubChem BioAssay (NCATS).
# This list was built around the results that the source calls inconclusive (neither active nor inactive); the mix of calls is not that of the screen. For some assays here: Potencies of inconclusive entries are left out as doubtful fits. Active and inactive are the calls of the source. Unless noted, the call rests on the fitted dose curve; in most records, active means well fitted curve in the direction sought with a large enough effect; inconclusive means small, poorly fitted or top-dose-only effect, or another doubt; inactive means no such curve, though single readings can be large; an effect the other way counts as inactive or inconclusive.
# Tests used:
# [1] = biological target: Endonuclease 4 (Escherichia coli (strain K12)) (UniProt P0A6C1); experiment: Counterscreen for APE1 Inhibitors: qHTS Validation Assay for Inhibitors of Endonuclease IV (AID 1708); further: on the % scale 0 is the no-effect control and ±100 the full control effect
# In short: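 2 nM enzyme was preincubated with compounds for 15 min at room temperature in 50 mM Tris-HCl pH 7.5, 50 mM NaCl, 2 mM MgCl2, 1 mM DTT, 0.01% Tween-20. 50 nM THF-abasic TAMRA/BHQ-2 duplex substrate started the reaction.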
# [2] = qHTS for differential inhibitors of proliferation of Plasmodium falciparum line 7G8 (AID 1815);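 further: potency means the concentration at half of the fitted maximal effect; parasite growth measured after three days of incubation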
# [3] = qHTS for differential inhibitors of proliferation of Plasmodium falciparum line GB4 (AID 1816); details: Potency: Plasmodium falciparum GB4 proliferation inhibition;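 further: potency means the concentration at half of the fitted maximal effect; parasite growth measured after 72 h incubation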
# [4] = qHTS for differential inhibitors of proliferation of Plasmodium falciparum line D10 (AID 1877);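 further: potency means the concentration at half of the fitted maximal effect; parasites grown with compound for 72 h before DNA staining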
# [5] = qHTS for differential inhibitors of proliferation of Plasmodium falciparum line HB3 (AID 1886); details: Potency: Plasmodium falciparum HB3 proliferation inhibition;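 further: potency means the concentration at half of the fitted maximal effect; parasites grown with compound for 72 h before SYBR Green readout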
# [6] = biological target: RecQ-like DNA helicase BLM (Homo sapiens) (UniProt P54132); experiment: qHTS Validation Assay for Inhibitors of Bloom's syndrome helicase (BLM) (AID 2364); further: potency means the concentration at half of the fitted maximal effect;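 on activity change, negative = inhibition: plate controls were DMSO vehicle for no effect and enzyme-free control for full effect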
# In short: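 BLM 50 nM in 25 mM Tris-HCl pH 8.0, 5 mM NaCl, 2 mM MgCl2, 1 mM DTT, 0.01% Tween-20, 2.5 ug/ml poly(dI-dC); 15 min cpd preinc, RT. Start: 200 nM forked DNA + 2 mM ATP (final). TAMRA read, 2 reads 2 h apart.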
# [7] = biological target: Rap guanine nucleotide exchange factor 3 (Homo sapiens) (UniProt O95398); experiment: Counterscreen qHTS for agonist of cAMP-regulated guanine nucleotide exchange factor 3 (EPAC1) (AID 1645889); details: EPAC1 Rap1B-BODIPY-GDP exchange, fluorescence; activation: at 154 µM (top of the series) unless noted; further: nearly all actives have a fitted effect of over 40% in size; further: potency means the concentration at half of the fitted maximal effect; on activation: % of control where 0% means no effect
# In short: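 Measured: fluorescence of BODIPY-GDP bound to Rap1B, which falls as exchange proceeds. Conditions include 50 uM competing GDP, 5 and 30 min reads, and a later cAMP challenge for antagonist detection.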
# [8] = biological target: Rap guanine nucleotide exchange factor 4 (Homo sapiens) (UniProt Q8WZA2); experiment: Confirmatory qHTS for antagonist of cAMP-regulated guanine nucleotide exchange factor 4 (EPAC2) (AID 1645885); details: activity change, negative = inhibition: at 114 µM (top of the series) unless noted; further: nearly all actives have a fitted effect of over 25% in size; further: potency means the concentration at half of the fitted maximal effect; on activity change, negative = inhibition: on the % scale 0 is the no-effect control and ±100 the full control effect
# [9] = biological target: DNA repair nuclease/redox regulator APEX1 (Homo sapiens) (UniProt P27695); experiment: qHTS Validation Assay for Inhibitors of the Human Apurinic/apyrimidinic Endonuclease 1 (APE1) (AID 1705; further: potency means the concentration at half of the fitted maximal effect)
# In short: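 Human APE1 was preincubated with compound for 15 min at room temperature, then 50 nM (final) THF-abasic double-stranded DNA substrate bearing 5'-TAMRA and 3'-BHQ-2 was added. Incision-driven fluorescence rise (ex 525/em 598 nm) was read kinetically.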
# [10] = qHTS for differential inhibitors of proliferation of Plasmodium falciparum line 3D7 (AID 1876); further: potency means the concentration at half of the fitted maximal effect
# [11] = qHTS for differential inhibitors of proliferation of Plasmodium falciparum line Dd2 (AID 1882); details: Potency: Plasmodium falciparum Dd2 proliferation inhibition; further: potency means the concentration at half of the fitted maximal effect; nearly all actives have a fitted effect of over 65% in size
# In short: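 SYBR Green I DNA fluorescence read-out, ex 485/em 535 nm. Signals were normalized to 0.29 uM artemisinin and DMSO wells, then corrected using vehicle-only plates flanking each stack. Parasite growth ran 72 h in erythrocytes before lysis.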
# [12] = qHTS for differential inhibitors of proliferation of Plasmodium falciparum line W2 (AID 1883); details: Potency: Plasmodium falciparum W2 proliferation inhibition;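 further: potency means the concentration at half of the fitted maximal effect; parasites grown with compound for 72 h before lysis and staining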
# [13] = qHTS Assay for Modulators of Human Peripheral Myelin Protein 22 (PMP22) Expression/Activity (AID 1967; active means well fitted curve in the direction sought with a large enough effect in the signal ratio; inconclusive means small, poorly fitted or top-dose-only effect, or effect the other way, or a change in a side signal; inactive means no such curve, though single readings can be large or run the other way; the % refers to the signal ratio; further: potency means the concentration at half of the fitted maximal effect); details: Cell-based PMP22 reporter, dual-color luciferase ratio, mouse Pmp22 promoter in mouse Schwann cells; activity change (ratio): at 115 µM (top of the series)
# In short: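 MSC80 mouse Schwann cells stably carrying Pmp22 promoter–green click beetle luciferase plus EF-alpha–red luciferase control were dosed for 24h at 37 °C. Dual-colour luminescence was filter-overlap corrected; %Activity came from green/red ratio versus untreated cells.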
# [14] = biological target: Ferritin light chain (Equus caballus) (UniProt P02791); experiment: qHTS Validation Assay for Identification of Novel General Anesthetics (AID 2323); further: potency means the concentration at half of the fitted maximal effect
# In short: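 Competitive displacement of profluorescent 1-aminoanthracene (1-AMA, 50% saturated solution in PBS) from 10 uM horse-spleen apoferritin. Compounds incubated 10 min at room temperature; fluorescence read at 380 nm excitation/535 nm emission, normalized to free 1-AMA and complex, fitted with four-parameter Hill equation.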
# [15] = biological target: DNA repair nuclease/redox regulator APEX1 (Homo sapiens) (UniProt P27695); experiment: Confirmation qHTS Assay for Inhibitors of the Human Apurinic/apyrimidinic Endonuclease 1 (APE1) (AID 2572); further: potency means the concentration at half of the fitted maximal effect; nearly all actives have a fitted effect of over 30% in size
# In short: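 Fluorescence gain at 598 nm (Ex 525 nm) reports APE1 cleavage of a TAMRA/BHQ-2-labelled duplex carrying a tetrahydrofuran abasic site, 50 nM final. Activity taken as third-minus-first kinetic read after 15 min compound preincubation, room temperature.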
# [16] = Validation screen for inhibitors of Lassa infection (AID 463096; calls by dose curve; further: potency means the concentration at half of the fitted maximal effect)
# [17] = Validation screen for small molecules that induce DNA re-replication in MCF 10A normal breast cells (AID 463097); further: potency means the concentration at half of the fitted maximal effect; nearly all actives have a fitted effect of over 60% in size
# In short: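 Readout: Hoechst nuclear fluorescence intensity, 405 ex / 500-530 em, by scanning plate imager; re-replication scored as increase in nuclei with elevated DNA content. Cells exposed to compound 48 hr, 37 C, 5% CO2 beforehand.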
# [18] = Quantitative high throughput screen for delayed death inhibitors of the malarial parasite plastid, 96 hour incubation (AID 488745); further: potency means the concentration at half of the fitted maximal effect; nearly all actives have a fitted effect of over 70% in size
# In short: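 Growth of reporter-bearing P. falciparum in red cells is measured after 96 h with compound, covering two erythrocytic cycles. Luminescence from the integrated luciferase serves as the growth signal.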
# [19] = biological target: Ubiquitin carboxyl-terminal hydrolase 1 (Homo sapiens) (UniProt O94782); experiment: Inhibitors of USP1/UAF1: Pilot qHTS (AID 504865);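 further: rhodamine fluorescence freed from ubiquitin-rhodamine substrate followed over time; potency means the concentration at half of the fitted maximal effect; nearly all actives have a fitted effect of over 35% in size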
# In short: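 USP1/UAF1 complex (1nM) preincubated with compound 15 min at room temperature, then Ub-Rho substrate (150nM final) added. Fluorescence read kinetically at 480/540 nm, 6 reads every 60 seconds. Buffer: 50mM HEPES pH 7.8, 0.5mM EDTA, 0.1 mg/ml BSA, 1mM TCEP, 0.01% Tween-20.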
# Tags describe the fitted curve by direction and shape.
# UniProt Q8WZA2, sequence (Q8WZA2 whole entry, looked up): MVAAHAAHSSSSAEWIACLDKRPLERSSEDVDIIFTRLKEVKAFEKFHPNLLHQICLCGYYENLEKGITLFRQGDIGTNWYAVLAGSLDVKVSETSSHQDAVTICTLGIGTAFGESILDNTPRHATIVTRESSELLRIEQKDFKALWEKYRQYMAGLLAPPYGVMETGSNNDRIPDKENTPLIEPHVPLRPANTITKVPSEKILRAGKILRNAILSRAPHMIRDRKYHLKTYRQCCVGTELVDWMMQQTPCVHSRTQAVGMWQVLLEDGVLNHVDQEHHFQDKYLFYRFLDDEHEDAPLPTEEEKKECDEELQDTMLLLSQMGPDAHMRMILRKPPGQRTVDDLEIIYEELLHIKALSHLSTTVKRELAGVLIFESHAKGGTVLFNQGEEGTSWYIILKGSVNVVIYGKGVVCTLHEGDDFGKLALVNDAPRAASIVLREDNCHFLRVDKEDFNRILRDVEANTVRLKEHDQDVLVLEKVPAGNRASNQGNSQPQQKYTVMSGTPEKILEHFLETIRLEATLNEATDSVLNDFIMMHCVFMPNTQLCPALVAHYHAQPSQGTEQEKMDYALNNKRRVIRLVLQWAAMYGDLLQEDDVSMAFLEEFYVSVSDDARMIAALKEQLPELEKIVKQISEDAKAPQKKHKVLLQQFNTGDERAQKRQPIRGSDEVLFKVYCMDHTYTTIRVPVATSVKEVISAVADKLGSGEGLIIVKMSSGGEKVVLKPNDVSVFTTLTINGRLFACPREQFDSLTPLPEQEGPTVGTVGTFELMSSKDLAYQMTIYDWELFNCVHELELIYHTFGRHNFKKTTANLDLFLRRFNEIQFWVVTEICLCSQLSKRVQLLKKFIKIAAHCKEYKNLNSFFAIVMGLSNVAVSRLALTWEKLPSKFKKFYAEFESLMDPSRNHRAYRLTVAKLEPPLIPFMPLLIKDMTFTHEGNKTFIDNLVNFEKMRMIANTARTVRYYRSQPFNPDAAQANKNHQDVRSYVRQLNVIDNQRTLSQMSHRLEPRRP
# UniProt P27695, sequence (P27695 whole entry, looked up): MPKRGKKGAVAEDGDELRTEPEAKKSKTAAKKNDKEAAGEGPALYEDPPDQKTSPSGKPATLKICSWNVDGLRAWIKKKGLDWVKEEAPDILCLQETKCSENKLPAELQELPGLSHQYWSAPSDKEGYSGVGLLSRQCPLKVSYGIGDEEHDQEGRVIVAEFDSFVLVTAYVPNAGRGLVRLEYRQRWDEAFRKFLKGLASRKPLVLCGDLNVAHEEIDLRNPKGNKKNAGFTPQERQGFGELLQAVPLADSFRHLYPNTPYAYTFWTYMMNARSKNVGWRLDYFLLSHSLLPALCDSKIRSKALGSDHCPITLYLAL
# UniProt O95398, sequence (O95398 whole entry, looked up): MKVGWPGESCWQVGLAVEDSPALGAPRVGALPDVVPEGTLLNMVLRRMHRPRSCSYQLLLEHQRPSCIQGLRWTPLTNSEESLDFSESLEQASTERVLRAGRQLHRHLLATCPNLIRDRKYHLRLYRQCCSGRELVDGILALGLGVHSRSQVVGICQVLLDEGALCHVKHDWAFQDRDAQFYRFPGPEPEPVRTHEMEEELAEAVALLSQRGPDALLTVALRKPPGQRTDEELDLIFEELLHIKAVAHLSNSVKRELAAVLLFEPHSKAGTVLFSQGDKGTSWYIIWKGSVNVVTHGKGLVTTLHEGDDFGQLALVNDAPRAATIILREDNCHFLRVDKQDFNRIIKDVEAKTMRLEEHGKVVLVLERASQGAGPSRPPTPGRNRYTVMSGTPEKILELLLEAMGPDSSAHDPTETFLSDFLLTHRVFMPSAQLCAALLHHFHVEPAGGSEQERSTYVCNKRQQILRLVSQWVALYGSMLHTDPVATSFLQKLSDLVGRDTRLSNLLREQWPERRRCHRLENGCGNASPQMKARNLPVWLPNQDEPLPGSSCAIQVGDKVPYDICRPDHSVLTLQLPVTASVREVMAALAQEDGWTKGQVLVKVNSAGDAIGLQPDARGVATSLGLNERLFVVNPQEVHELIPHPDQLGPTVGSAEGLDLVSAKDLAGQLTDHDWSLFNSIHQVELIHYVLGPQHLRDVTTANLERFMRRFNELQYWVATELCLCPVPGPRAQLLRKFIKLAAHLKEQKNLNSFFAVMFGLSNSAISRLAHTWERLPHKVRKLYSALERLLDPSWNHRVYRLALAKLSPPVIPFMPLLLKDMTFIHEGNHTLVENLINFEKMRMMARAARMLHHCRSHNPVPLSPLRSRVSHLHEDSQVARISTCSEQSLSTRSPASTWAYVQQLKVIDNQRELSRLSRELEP
# UniProt P54132, sequence (P54132 whole entry, looked up): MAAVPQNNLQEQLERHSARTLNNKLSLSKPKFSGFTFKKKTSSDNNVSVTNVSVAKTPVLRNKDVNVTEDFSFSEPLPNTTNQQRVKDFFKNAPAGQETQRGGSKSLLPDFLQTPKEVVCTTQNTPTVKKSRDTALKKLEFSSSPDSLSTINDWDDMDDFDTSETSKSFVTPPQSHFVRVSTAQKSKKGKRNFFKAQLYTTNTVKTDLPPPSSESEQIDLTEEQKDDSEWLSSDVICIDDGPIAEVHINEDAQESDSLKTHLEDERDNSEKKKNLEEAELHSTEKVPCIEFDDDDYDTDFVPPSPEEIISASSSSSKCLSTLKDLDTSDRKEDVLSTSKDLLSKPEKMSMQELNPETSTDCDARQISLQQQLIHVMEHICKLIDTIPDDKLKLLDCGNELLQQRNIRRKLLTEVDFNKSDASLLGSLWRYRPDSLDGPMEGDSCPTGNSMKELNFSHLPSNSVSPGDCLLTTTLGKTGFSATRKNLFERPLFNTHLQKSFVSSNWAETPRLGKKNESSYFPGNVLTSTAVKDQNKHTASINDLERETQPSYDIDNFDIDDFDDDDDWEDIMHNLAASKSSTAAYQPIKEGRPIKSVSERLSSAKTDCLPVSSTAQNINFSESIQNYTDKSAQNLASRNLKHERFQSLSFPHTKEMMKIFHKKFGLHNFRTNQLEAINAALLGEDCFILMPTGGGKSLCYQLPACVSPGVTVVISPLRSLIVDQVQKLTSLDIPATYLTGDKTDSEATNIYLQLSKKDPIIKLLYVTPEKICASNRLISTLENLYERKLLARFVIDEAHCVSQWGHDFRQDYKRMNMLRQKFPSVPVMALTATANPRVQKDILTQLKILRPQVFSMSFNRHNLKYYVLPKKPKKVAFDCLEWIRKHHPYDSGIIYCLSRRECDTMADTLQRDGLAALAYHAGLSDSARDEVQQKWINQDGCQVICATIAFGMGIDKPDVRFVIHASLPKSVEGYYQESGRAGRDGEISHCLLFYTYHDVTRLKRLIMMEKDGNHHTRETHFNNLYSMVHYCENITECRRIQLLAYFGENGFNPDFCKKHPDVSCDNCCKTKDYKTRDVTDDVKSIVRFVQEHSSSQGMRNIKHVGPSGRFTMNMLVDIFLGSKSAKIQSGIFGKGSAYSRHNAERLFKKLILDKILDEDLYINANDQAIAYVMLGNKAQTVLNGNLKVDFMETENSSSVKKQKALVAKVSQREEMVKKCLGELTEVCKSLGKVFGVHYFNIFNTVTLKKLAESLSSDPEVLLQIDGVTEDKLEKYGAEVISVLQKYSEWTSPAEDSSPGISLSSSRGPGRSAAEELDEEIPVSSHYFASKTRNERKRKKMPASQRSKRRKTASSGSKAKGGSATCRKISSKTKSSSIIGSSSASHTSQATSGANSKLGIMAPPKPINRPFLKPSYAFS
# UniProt P02791, sequence (P02791 whole entry, looked up): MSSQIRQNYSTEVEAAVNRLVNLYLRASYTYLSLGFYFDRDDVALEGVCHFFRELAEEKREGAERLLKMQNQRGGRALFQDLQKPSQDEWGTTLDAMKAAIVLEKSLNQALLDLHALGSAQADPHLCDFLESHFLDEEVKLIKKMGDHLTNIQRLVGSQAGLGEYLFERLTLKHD
# UniProt O94782, sequence (O94782 whole entry, looked up): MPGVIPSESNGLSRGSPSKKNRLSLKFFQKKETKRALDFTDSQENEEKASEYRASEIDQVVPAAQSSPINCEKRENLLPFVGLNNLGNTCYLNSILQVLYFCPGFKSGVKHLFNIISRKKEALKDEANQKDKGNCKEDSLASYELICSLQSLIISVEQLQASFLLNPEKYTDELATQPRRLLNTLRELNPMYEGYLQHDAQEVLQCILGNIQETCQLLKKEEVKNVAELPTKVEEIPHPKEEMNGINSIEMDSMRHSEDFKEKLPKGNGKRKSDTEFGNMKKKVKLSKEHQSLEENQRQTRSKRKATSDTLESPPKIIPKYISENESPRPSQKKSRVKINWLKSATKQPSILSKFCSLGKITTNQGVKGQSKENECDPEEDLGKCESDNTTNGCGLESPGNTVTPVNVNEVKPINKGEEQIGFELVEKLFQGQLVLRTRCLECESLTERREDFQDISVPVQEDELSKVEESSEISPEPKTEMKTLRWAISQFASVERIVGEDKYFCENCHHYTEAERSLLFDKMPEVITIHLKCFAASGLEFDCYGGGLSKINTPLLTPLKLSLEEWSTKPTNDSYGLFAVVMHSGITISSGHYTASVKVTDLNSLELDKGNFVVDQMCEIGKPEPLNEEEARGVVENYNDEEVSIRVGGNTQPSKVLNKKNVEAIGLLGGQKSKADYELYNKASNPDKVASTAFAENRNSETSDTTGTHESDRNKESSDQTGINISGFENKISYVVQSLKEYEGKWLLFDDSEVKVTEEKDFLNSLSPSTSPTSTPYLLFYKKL
compound,measurement,setting,value
C[C@]12CC[C@@H](O)CC1CCC1C2CC[C@]2(C)C(=O)CC[C@@H]12 (some centres undefined),Potency,[1],inactive
same,Potency,[2],"inconclusive [inhibitor, partial curve]"
same,Potency,[3],"inconclusive [inhibitor, single point]"
same,Potency,[4],"inconclusive [inhibitor, partial curve]"
same,Potency,[5],"inconclusive [inhibitor, partial curve]"
same,Potency,[6],inactive
COC(=O)C1=C(c2ccc3ccccc3c2)C[C@@H]2CC[C@H]1N2C(=O)NC1CC1,Potency,[7],inactive
CCOC(=O)[C@]12Cc3ccccc3[C@H]1N(Cc1ccccc1)C(=O)c1cc(OC)ccc12,Potency,[8],"inconclusive [inhibitor, partial curve, poor fit]"
O=C(c1cc(Cl)cc(Cl)c1)N1Cc2ccccc2-n2nncc2C1,activation,[7],inactive: 5.77% [at 30.8 µM]
CCOC(=O)[C@]12Cc3cc(C)ccc3[C@H]1N(Cc1ccccc1)C(=O)c1ccccc12,Potency,[7],"inconclusive [activator, partial curve, poor fit]"
C/C=C(/C)C(=O)O[C@H]1C(C)=C2C([C@@H]1OC(=O)CCCCCCC)[C@@](C)(OC(C)=O)C[C@@H](OC(=O)CCC)[C@@]1(O)[C@H]2OC(=O)[C@@]1(C)O (some centres undefined),Potency,[9],"inconclusive [inhibitor, partial curve]"
same,Potency,[1],inactive
same,Potency,[10],active: 4.47 µM
same,Potency,[4],active: 10 µM
same,Potency,[11],active: 8.91 µM
same,Potency,[12],active: 3.55 µM
same,Potency,[5],active: 10 µM
same,Potency,[13],"inconclusive [cytotoxic, full curve, poor fit]"
same,Potency,[14],"inconclusive [inhibitor, partial curve]"
same,Potency,[6],"inconclusive [inhibitor, partial curve]"
same,Potency,[15],"inconclusive [inhibitor, partial curve, poor fit]"
same,Potency,[16],active: 3.16 µM
same,Potency,[17],active: 6.31 µM
same,Potency,[18],active: 4.15 µM
CC(=O)OC1CC2C(C)(C)C(=O)C=C[C@]2(C)C2CC[C@]3(C)C(=CC(=O)OC3c3ccoc3)[C@]12C (some centres undefined),Potency,[19],"inconclusive [inhibitor, partial curve]"
same,Potency,[8],"inconclusive [inhibitor, single point]"
O=C1NC(=O)N(Cc2ccco2)C(=O)/C1=C\c1ccc(-c2ccc(F)cc2)o1,"activity change, negative = inhibition",[8],inactive: -6.14% [at 12.7 µM]
same,activation,[7],inactive: 11.1% [at 30.8 µM]
COc1ccc(C(SCC(NC(=O)OCc2ccccc2)C(=O)O)c2ccc(OC)cc2)cc1 (centres undefined),activation,[7],inconclusive: 21.8% [activator]
